In PubChem BioAssay AID624171 (National Center for Advancing Translational Sciences (NCATS), 2012):
Hit rate of the full screen: of about 410,000 compounds, about 1,200 (0.29%) were called active. The shares of active, inactive and inconclusive entries below differ from those in the screen. Calls come from the whole dose curve; as a rule, active = well fitted activation curve with a large enough effect; inconclusive = small, poorly fitted or top-dose-only effect; inactive = flat fitted curve, though single readings scatter. Where the call is inconclusive, the potency comes from a doubtful curve fit.

Assay: qHTS of Nrf2 Activators; note: nearly all actives have a fitted effect of over 65% in size; for activation: % of control where 0% means no effect
Conditions: AREc32 ARE-luciferase reporter (MCF7-derived line), luminescence, 24 h; activation: at 46.1 µM (top of the series)
Method in brief: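 AREc32_Fluc, 1000 cells/well, OPTI-MEM + 5% FBS, o/n 37 deg C 5% CO2; 23 nL cpd by pin tool, 24 hr; Steady-Glo 30 min RT, luminescence.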
Potency is the fitted concentration of half-maximal effect; tags give direction and shape of the fitted curve.

SMILES | Potency | activation
O=C(c1ccccc1)c1ccc(Oc2ccc([N+](=O)[O-])cc2[N+](=O)[O-])cc1 | inconclusive: 22.4 µM [activator, single point] | –
O=C(/C=C/c1ccccc1)CC(=O)c1ccccc1O | inconclusive: 15.8 µM [activator, partial curve, poor fit] | –
c1ccc(-c2csc(Nc3ccc4c(c3)OCO4)n2)cc1 | – | inactive: 8.33%
O=C(/C=C/c1ccc(O)c(O)c1)c1ccccc1O | inconclusive: 22.4 µM [activator, single point] | –
Brc1ccccc1C1N=C(c2ccccc2)NO1 (stereo unspecified) | active: 6.31 µM | –
Nc1ccc2oc(=O)c3ccccc3c2c1 | – | inactive: 5.53%
COc1ccccc1Cc1c(-c2cccc(Br)c2)nc2ccc(Br)cn12 | inconclusive: 12.6 µM [activator, single point] | –
Cc1ccc(Cn2c(CNS(=O)(=O)c3ccc(Cl)s3)nc3cccnc32)cc1 | – | inactive: 2.28%
Cc1cccc(-c2nc(SCC(=O)NCc3ccco3)c3c(=O)n(C)c(=O)n(C)c3n2)c1 | – | inactive: 0.374%
C=CCSc1nc(=O)n2cccc(C)c2n1 | inconclusive: 20 µM [activator, single point] | –
CCCc1cc(C(=O)Nc2cc(Br)ccc2O)no1 | inconclusive: 28.2 µM [activator, single point] | –
Nc1ccc(-c2nc3ncccc3o2)c(O)c1 | inconclusive: 22.4 µM [activator, single point] | –
O=C(c1ccccc1)[C@@H]1[C@@H]2C(=O)N(c3ccc(F)cc3)C(=O)[C@@H]2C2CCCN21 (stereo partly specified) | active: 10 µM | –
CCc1cc2c(NCc3ccco3)ncnc2s1 | active: 3.55 µM | –
CCN1CCN(c2sc(S(C)(=O)=O)nc2S(=O)(=O)c2ccc(Cl)cc2)CC1 | inconclusive: 8.91 µM [activator, partial curve] | –
COc1ccc(S(=O)(=O)N2CCN(C)CC2c2ccccc2)cc1OC (stereo unspecified) | – | inactive: -1.05%
CN(C)C(=O)COc1ccc(C(=O)/C=C/c2cccnc2)cc1 | inconclusive: 31.6 µM [activator, single point] | –
CCOC(=O)c1c(NC(=O)/C=C/C(=O)O)sc(C)c1-c1ccc(C)c(C)c1 | inconclusive: 28.2 µM [activator, single point] | –
O=C(CCNc1ccc(Cc2ccncc2)cc1)c1cccc([N+](=O)[O-])c1 | inconclusive: 25.1 µM [activator, single point] | –
Cc1ccc(S(=O)(=O)CCC(=O)Nc2nnc(CC(C)C)s2)cc1 | inconclusive: 22.4 µM [activator, single point] | –
CC(C)Cn1c(N)c(C(=O)COC(=O)c2c(O)c(Cl)cc(Cl)c2Cl)c(=O)n(C)c1=O | inconclusive: 22.4 µM [activator, partial curve, poor fit] | –
CC1=C(C(=O)Nc2ccc(C)cc2)C(c2ccc(Cl)cc2)n2nnnc2N1 (stereo unspecified) | inconclusive: 25.1 µM [activator, single point] | –
CC(C)Sc1ncc(Cl)c(C(=O)N(Cc2ccc(F)cc2)C2CCS(=O)(=O)C2)n1 (stereo unspecified) | – | inactive: 5.22%
COc1ccc(Cc2c(-c3cccc(Br)c3)nc3ccc(Cl)cn23)c(C)c1 | inconclusive: 15.8 µM [activator, single point] | –

SMILES | Potency | activation
O=c1oc2ccccc2cc1-c1nc(-c2cccs2)cs1 | active: 2.51 µM | –
Nc1ccccc1Sc1nc2ccccc2[nH]1 | inconclusive: 22.4 µM [activator, single point] | –
CCOC(=O)C1=C(CC)OC(N)=C(C#N)C1c1ccc(F)cc1F (stereo unspecified) | inconclusive: 12.6 µM [activator, single point] | –
C=CC[C@@H](CC(=O)NCCO)C(=O)N[C@H](COC(=O)[C@H](CC=C)CC(=O)OC(C)(C)C)Cc1c[nH]c2ccccc12 | – | inactive: 5.63%
C=C(C)C(=O)Oc1ccc(N2C(=O)CCC2=O)cc1 | inconclusive: 22.4 µM [activator, single point] | –
CCOC(=O)/C=C/C(=O)OCC(=O)Nc1ccc([N+](=O)[O-])cc1 | inconclusive: 31.6 µM [activator, single point] | –
O=C(Nc1ccon1)c1nc[nH]c1C(=O)N1CCN(c2ccccc2)CC1 | – | inactive: 0.139%
Cc1ccc2nc(/C(C#N)=C\c3ccc([N+](=O)[O-])o3)[nH]c2c1 | inconclusive: 2.82 µM [activator, full curve, poor fit] | –
COc1ccc(/C(N)=N/OC(=O)c2cccs2)cc1 | inconclusive: 22.4 µM [activator, partial curve, poor fit] | –
COc1cccc(-c2[nH]nc3c2C(c2ccc(C)o2)C(C#N)=C(N)O3)c1 (stereo unspecified) | inconclusive: 31.6 µM [activator, single point] | –
CCN(c1ccccc1)S(=O)(=O)c1ccc(C(=O)NC2CCN(Cc3ccccc3)CC2)cc1 | – | inactive: 2.98%
COc1cccc(-c2nnc(-c3ccco3)o2)c1 | inconclusive: 6.31 µM [activator, partial curve, poor fit] | –
Cc1ccc(NC(c2nnc(-c3ccccc3)o2)c2ccccc2F)c([N+](=O)[O-])c1 (stereo unspecified) | inconclusive: 12.6 µM [activator, partial curve, poor fit] | –
COc1cc(OC)c2c(-c3cccc(-c4ccoc4)c3)cc(=O)oc2c1 | inconclusive: 20 µM [activator, partial curve, poor fit] | –
Cc1ccc(CNC(=O)C2CCCN(c3nnc(-n4c(C)ccc4C)s3)C2)cc1 (stereo unspecified) | inconclusive: 22.4 µM [activator, single point] | –
CN(C)S(=O)(=O)c1cccc(-c2nn(-c3ccccc3)cc2/C=C(\C#N)c2nc3ccccc3[nH]2)c1 | – | inactive: 0.31%
CCCc1cc(=O)oc2cc(C)c3c(-c4cccc(OC)c4)coc3c12 | – | inactive: -0.408%
Cc1ccc(OCCn2c(C3CC(=O)N(Cc4ccccc4)C3)nc3ccccc32)cc1 (stereo unspecified) | – | inactive: 1.76%
O=C(O)c1cc(-c2ccco2)nc2ccc(Br)cc12 | inconclusive: 31.6 µM [activator, single point] | –
CC1=CN2C(=N)/C(=C/c3ccc(Sc4ccc(C)cc4)o3)C(=O)N=C2S1 | inconclusive: 17.8 µM [activator, single point] | –
O=C(NCc1cccnc1)/C(=C\c1ccc(-c2ccc(Cl)c(Cl)c2)o1)S(=O)(=O)c1ccccc1 | inconclusive: 5.01 µM [activator, single point] | –
COc1cccc(C(=O)O/N=C(\N)c2ccccn2)c1 | – | inactive: -0.95%
Cc1ccc(C)c(N(C(=O)c2snc(C(N)=O)c2N)C(C(=O)NCC2CCCO2)c2ccc(C)o2)c1 (stereo unspecified) | – | inactive: -0.184%
Cc1cc(Sc2nnc(/N=C/N(C)C)s2)c2ccccc2n1 | – | inactive: -3.91%

SMILES | Potency | activation
CC(=O)COc1cccc2ccc(/C=C/c3ccc(Br)s3)nc12 | inconclusive: 1 µM [activator, full curve, poor fit] | –
S=C1SCN(Cc2ccccc2)CN1Cc1ccco1 | – | inactive: 7.51%
N#CC1=C(N)Oc2c(ccc3ccccc23)C1c1cccs1 (stereo unspecified) | active: 2.82 µM | –
CC(C)(C)c1ccc(Cn2cnc(-c3ccc([N+](=O)[O-])cc3)c2)cc1 | – | inactive: 5.62%
Cc1ccccc1C(=O)Nc1cccc(C(=O)N/N=C/c2cc(Cl)cc([N+](=O)[O-])c2O)c1 | – | inactive: 0.964%
O=C(COc1ccc(Cl)cc1)Nc1ccc(-c2nc3cc(Cl)ccc3o2)c(O)c1 | inconclusive: 12.6 µM [activator, partial curve] | –
COC(=O)c1sc2cccc(F)c2c1S(=O)(=O)Nc1cc(C)c(Cl)cc1OC | inconclusive: 10 µM [activator, partial curve] | –
C=CCNc1nc(-c2ccc(OC)cc2OC)cs1 | inconclusive: 20 µM [activator, single point] | –
CCOC(=O)c1csc(NC(=O)CCS(=O)(=O)c2ccc(Cl)cc2)n1 | inconclusive: 20 µM [activator, single point] | –
Clc1ccc2nc(-c3ccco3)c(Cc3ccsc3)n2c1 | active: 11.2 µM | –
Fc1ccccc1C1CC(c2ccco2)=Nc2ccccc2S1 (stereo unspecified) | inconclusive: 12.6 µM [activator, partial curve, poor fit] | –
CC(=O)Nc1cccc(C(=O)/C=C/c2cccs2)c1 | inconclusive: 20 µM [activator, single point] | –
Cc1ccc(NCC(=O)N/N=C\C(Br)=C\c2ccccc2)cc1 | inconclusive: 28.2 µM [activator, single point] | –
CCCCOCCCN1CC(=O)N2[C@@H](Cc3c([nH]c4ccccc34)C2(C)C)C1=O | – | inactive: -0.359%
CCOC(=O)c1cc2nc(-c3ccco3)cc(C(F)(F)F)n2n1 | inconclusive: 11.2 µM [activator, partial curve] | –
Nc1nc2ccccc2n1/N=C/c1cccnc1 | – | inactive: 14.9%
COc1c(C(=O)Nc2nnc(C3CC3)s2)csc1Cl | active: 8.91 µM | –
COc1ccc(C(=O)NC2CC3CCCC(C2)N3Cc2ccccc2)c(OC)c1 (stereo unspecified) | – | inactive: 2.61%
NC(=O)c1cc2ccccc2o/c1=N\NC(=O)c1ccc(F)cc1 | inconclusive: 35.5 µM [activator, single point] | –
Clc1ccsc1-c1ccc2ccccc2n1 | active: 10 µM | –
CCOC(=O)/C=C/C(=O)OCc1csc(CC(=O)Nc2ccccc2C)n1 | inconclusive: 15.8 µM [activator, single point] | –
CC(C)(C)C1C/C(=C/c2ccco2)C(=O)/C(=C/c2ccco2)C1 (stereo unspecified) | inconclusive: 12.6 µM [activator, partial curve, poor fit] | –
Cc1onc(-c2c(F)cccc2Cl)c1C(=O)O/N=C(\N)c1ccc([N+](=O)[O-])o1 | inconclusive: 25.1 µM [activator, single point] | –
